Experimental data from PubChem BioAssay AID488969 (Vanderbilt High Throughput Screening Facility, 2010).
In all, about 110,000 compounds were measured (“z-score”: median about -0.1, highest 2% from about 2 on). Some of the results follow. Calls of active or inactive are those of the source.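 How the source made its calls: active means z-score in the third read window above 3 or below -3; inactive means the rest.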

The molecules below were run against Metabotropic glutamate receptor 8 (Rattus norvegicus) (UniProt P70579) (assay: mGluR8 Gi/Go-coupled signaling modulation – cell-based, rat, thallium flux, HTS, primary screen (AID 488969)). Settings: HEK293 rat mGluR8, GIRK (G protein-gated inwardly rectifying potassium channel) thallium flux, FluoZin2; at 10 µM; stronger effect = higher value; submaximal glutamate (EC20) added with thallium.
UniProt P70579, sequence (P70579 whole entry, looked up): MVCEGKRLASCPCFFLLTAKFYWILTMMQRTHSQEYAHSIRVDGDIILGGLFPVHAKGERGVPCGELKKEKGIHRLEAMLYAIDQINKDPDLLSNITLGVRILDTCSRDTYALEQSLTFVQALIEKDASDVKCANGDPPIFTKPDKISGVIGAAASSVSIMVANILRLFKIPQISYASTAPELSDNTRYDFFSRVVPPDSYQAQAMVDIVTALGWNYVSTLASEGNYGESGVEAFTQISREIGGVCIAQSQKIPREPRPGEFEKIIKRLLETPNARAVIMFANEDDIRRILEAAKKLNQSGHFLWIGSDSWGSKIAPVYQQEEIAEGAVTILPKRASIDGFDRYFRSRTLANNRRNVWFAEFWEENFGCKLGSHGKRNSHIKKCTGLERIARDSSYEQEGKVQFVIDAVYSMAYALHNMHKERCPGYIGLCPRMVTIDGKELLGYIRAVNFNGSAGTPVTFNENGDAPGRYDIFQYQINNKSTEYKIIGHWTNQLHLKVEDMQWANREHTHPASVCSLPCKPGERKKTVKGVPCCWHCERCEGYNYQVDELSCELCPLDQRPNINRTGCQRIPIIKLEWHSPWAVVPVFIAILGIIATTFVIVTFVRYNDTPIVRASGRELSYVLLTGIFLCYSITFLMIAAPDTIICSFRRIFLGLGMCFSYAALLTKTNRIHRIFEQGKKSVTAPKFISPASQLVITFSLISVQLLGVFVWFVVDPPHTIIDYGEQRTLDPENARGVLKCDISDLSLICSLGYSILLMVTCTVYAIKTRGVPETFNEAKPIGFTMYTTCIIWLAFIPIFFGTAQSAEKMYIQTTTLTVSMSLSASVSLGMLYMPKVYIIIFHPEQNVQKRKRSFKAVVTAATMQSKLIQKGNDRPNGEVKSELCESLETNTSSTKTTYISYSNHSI

Point of comparison: `COc1cccc(C(=O)CSc2nnc(-c3ccco3)n2CC2CCCO2)c1` (stereo unspecified), z-score -0.367. Against it:
- CCCCCNC(=O)CN(c1ccc2c(c1)OCO2)S(C)(=O)=O — higher, -0.303
- Cc1ccccc1N1C(=O)C(Oc2ccc(Cl)cc2)C1CNCCCOC(C)C (stereo unspecified) — higher, 2.95
- CC(C)[C@H](NC(=O)OCc1ccccc1)C(=O)OCC(=O)NC1CCCCC1 — higher, -0.184
- O=C(CCC(=O)N1CCc2ccccc21)Nc1ccccc1 — higher, 0.0615
- O=C(NCC(c1cccnc1)N1CCN(c2ccccc2)CC1)OCc1ccccc1 (stereo unspecified) — lower, -0.479
- Cc1cc(C)c(S(=O)(=O)N2CCCCC2)c(C)c1-n1ncnn1 — higher, 0.237
- COc1ccc(NC(=O)C2CCN(c3cc(C)nc(-c4ccccc4)n3)CC2)cc1 — higher, -0.351
- Cc1ccccc1C(=O)Nc1nncs1 — higher, -0.0319
- COC(=O)c1sc(S(=O)(=O)N2CCC(C(N)=O)CC2)c(C(=O)OC)c1C — higher, -0.0642
- COc1ccc(N(C(=O)c2cccc(OC)c2OC)C2C=CS(=O)(=O)C2)cc1 (stereo unspecified) — higher, -0.0517
- c1ccc(-c2nc(N3CCOCC3)c3ccccc3n2)nc1 — higher, 0.178
- O=C(CCn1nc(-c2ccc(Cl)cc2)ccc1=O)NCc1cccnc1 — higher, -0.0692
- CN(C)c1ccnc(SCc2ccccc2Cl)c1C#N — higher, 0.0449
- Cc1ccc(/C(O)=C2\C(=O)C(=O)N(CC(C)O)C2c2ccc(N(C)C)cc2)cc1 (stereo unspecified) — higher, -0.0674
- CN(C)CC(=O)Nc1ccc(S(N)(=O)=O)cc1 — higher, 0.088
- FC(F)(F)c1nc(-c2cccs2)ncc1-c1nnnn1-c1ccc(Cl)cc1 — higher, -0.147
- COc1ccc(Cl)cc1NC(=O)/C=C\C(=O)O — higher, -0.076
- CC(=O)c1cccc(NC(=O)CSC(=O)c2ccccc2)c1 — higher, 0.0943
- N#Cc1ccc(Oc2ccc(-c3nc4ccccc4nc3-c3ccccc3)cc2)cc1C#N — higher, 0.135
- Cc1onc(-c2c(F)cccc2Cl)c1C(=O)Nc1nc2ccccc2[nH]1 — higher, -0.188
- O=C(C1CCCN1S(=O)(=O)c1cccc2cccnc12)N1CCc2ccccc21 (stereo unspecified) — higher, 2.97
- CCN(CC)C(=O)COc1ccc(-c2nnc(N3CCCCC3)c3ccccc23)cc1 — lower, -1.21
- CCCn1c(=NC(=O)c2ccco2)c(C(=O)OCC)cc2c(=O)n3ccccc3nc21 — higher, -0.278
- CC(C)Sc1nc2c(c(=O)[nH]c(=O)n2C)n1Cc1ccc(Cl)cc1 — lower, -0.372
- CC(=O)c1cccc(NC(=O)c2cc(-c3ccc(C)cc3)on2)c1 — higher, 0.209
- Cc1ncc(S(=O)(=O)c2ccc(Cl)cc2)c(-c2ccccc2)n1 — higher, -0.0458
- COc1ccc(N2CCN(C(=O)CN3C(=O)c4ccccc4S3(=O)=O)CC2)cc1 — lower, -0.593
- CCC(CC)C(=O)N1CC(=O)Nc2ccc(Br)cc2C1c1ccccc1 (stereo unspecified) — lower, -0.895
- O=C(NC(=S)NCCN1CCOCC1)c1ccccc1Cl — higher, -0.177
- Cc1ccc(C(=O)Oc2cccc(NC(=O)c3ccco3)c2)cc1S(=O)(=O)N1CCC(C)CC1 — higher, -0.231
- COC(=O)CN1C(=S)N(c2ccc(Cl)cc2)C(=O)C1CC(=O)Nc1ccccc1 (stereo unspecified) — higher, -0.188
- O=C(c1ccc(COc2c(F)c(F)c(F)c(F)c2F)o1)N1CCN(Cc2ccc3c(c2)OCO3)CC1 — higher, 0.171
- Cc1ccc(C(=O)N/C(=C\c2sccc2C)C(=O)NCc2ccncc2)cc1 — higher, 0.317
- CN(Cc1cc(=O)n2ccsc2n1)c1ccccc1 — higher, 0.269
- Cc1cc(C(=O)CSc2n[nH]c(N)n2)c(C)n1-c1cccc(F)c1 — lower, -1.69
- CC1CN/C(=C\C(=O)c2ccccc2)C(=O)N1 (stereo unspecified) — higher, -0.329
- CNc1cc([N+](=O)[O-])ccc1N/C=C/C(=O)c1cccs1 — lower, -0.398
- Cc1nc(S(=O)(=O)c2cccc(Cl)c2)nc2c1CCC2 — higher, -0.17
- CC(C)(C)c1cc(C(=O)NCc2ccco2)ccn1 — higher, 1.2
- CN(C)CCCNc1ncnc2c1cnn2-c1ccccc1 — higher, 0.0262
- CC(C)C(=O)Nc1cc(=O)[nH]c2ncnn12 — higher, 0.254
- CCCc1nc(SCC(=O)c2ccccc2)c2c(=O)n(C)c(=O)n(C)c2n1 — higher, 0.819
- CC(=O)c1cccc(N/C=C\c2nnnn2-c2ccc(F)cc2)c1 — higher, -0.335
- Cc1c(/C=C/C(=O)c2cccs2)cnn1C — higher, 0.118
- C=CCNC(=O)/C(C#N)=C/c1c(C)nn(-c2ccc(Cl)cc2)c1Cl — higher, -0.224
- Cc1ccc2nc(SCC(=O)N3CCOCC3)[nH]c2c1 — higher, 0.844
- CCn1nc(NC(=O)c2ccncc2)c2cc3ccccc3nc21 — higher, -0.219
- Cn1c(C(=O)N2CCCc3ccccc32)cc2c(=O)n3ccccc3nc21 — lower, -1.01
- COCc1cc(/C=N\NC(=O)Cc2ccc(Cl)cc2)ccc1OC — higher, -0.253
- O=C(Nc1ccc(Cl)cc1)OCc1ccccn1 — higher, 0.0566
- O=C(Nc1ccccc1N1CCOCC1)C1CCN(S(=O)(=O)c2ccc(F)cc2)CC1 — higher, 0.553
- O=C(CSc1nc2ccccc2s1)NCc1ccc2c(c1)OCO2 — higher, 0.397
- O=C(NCc1ccc(F)cc1)c1cccc(S(=O)(=O)N2CCCC2)c1 — higher, 0.497
- O=C(/C=C/c1ccco1)NC(=S)Nc1cccc(-c2nc3ccccc3o2)c1 — higher, 0.276
- COc1ccc(C)cc1S(=O)(=O)NC1CCCC1 — higher, -0.216
- Cc1occc1-c1nnc(SCC(=O)c2c[nH]c3ccccc23)n1C — higher, -0.0265
- O=C(C[n+]1cc(-c2ccccc2)n2c1CCC2)N1c2ccccc2Sc2ccccc21 — higher, -0.288
- O=S(=O)(c1ccc(-c2csc(=Nc3ccccc3)n2CCCN2CCOCC2)cc1)N1CCOCC1 — higher, -0.35
- COc1cccc(CNC(=O)CSCc2cnn(-c3ccccc3)c2-n2cccc2)c1 — higher, 0.118
- C=CCNC(=O)CCCOc1cc(C)ccc1C — higher, 0.0352
- CC(C)n1c(SCC(N)=O)nc2c1c(=O)n(C)c(=O)n2C — higher, -0.0906
- O=c1[nH]c(C(F)(F)F)nc2ccccc12 — higher, -0.11
- Cc1ccc(NC(=O)Cc2ccc([N+](=O)[O-])cc2)c(Br)c1 — higher, 0.513
- Cc1ccc2c(c1)c1c(n2CC(O)Cn2c(C)nc3ccccc32)CCCC1 (stereo unspecified) — lower, -0.427
- COc1ccc(OCC(=O)N2CCN(C(=O)c3ccco3)CC2)cc1 — higher, 0.0762
- S=C(NCCN1CCOCC1)Nc1ccc(Cl)cc1Cl — lower, -1.12
- Cc1ccc(C2C3=C(CC(C)(C)CC3=O)Nc3onc(C)c32)cc1 (stereo unspecified) — higher, 0.00867
- COc1ccccc1N1CCN(C(=O)Cn2nc(C(F)(F)F)c3c2CCC3)CC1 — higher, 0.25
- CCOC(=O)CCc1c(C)c2ccc(OCC(=O)OC(C)C)cc2oc1=O — higher, 0.293
- COc1ccc(-c2noc(CN3CCN(c4ccccc4F)CC3)n2)cc1OC — higher, -0.343
- c1cc(-c2noc(-c3ccc4c(c3)OCO4)n2)ccn1 — higher, -0.241
- O=C(Nc1c(C(=O)NCc2ccco2)cnn1-c1ccccc1)c1ccc(F)cc1 — lower, -2.63
- CN1CCN(CC(=O)Nc2cc(N3CCOCC3)ccc2[N+](=O)[O-])CC1 — lower, -0.389
- CCOc1ccc(N=C(NN)c2ccc3ccccc3n2)cc1 — higher, -0.116
- Cc1c(Cl)cccc1NC(=O)CCCN1C(=O)CCC1=O — higher, 0.5
- COc1ccc(NC(=O)Cc2ccccc2)cc1 — higher, 0.2
- O=C(c1ccco1)N1CCN(c2c(-c3ccccc3)c3cc(Cl)ccc3[nH]c2=O)CC1 — higher, -0.0972
- COc1ccc(-n2c(C)nc3cc(C(=O)NCc4ccco4)ccc32)cc1 — higher, 2.54
- COc1ccc(C2C(Oc3ccccc3)C(=O)N2c2cc(C)ccc2C)cc1OC (stereo unspecified) — higher, -0.22
- COC(=O)C1CC(O)CN1C(=O)c1ccco1 (stereo unspecified) — higher, 0.107
- Cc1ccc(C)c(N(CC(=O)N(C)C)S(C)(=O)=O)c1 — higher, -0.161
- O=C1[C@@H]2[C@H](C(=O)N1Cc1ccco1)[C@H]1C=C[C@@H]2C1 — higher, -0.0939
- C=C(C)c1cccc(C(C)(C)NC(=O)Nc2ccc(C)cn2)c1 — higher, -0.34
- CCOc1ccc(S(=O)(=O)N(CC(=O)NC2CCCCC2C)Cc2ccco2)cc1 (stereo unspecified) — higher, 0.273
- CCNC(=O)C/C(C)=N/NC(=O)C1CCCCC1 — lower, -0.417
- COc1cccc(-c2cc(C(=O)NCc3ccco3)no2)c1 — higher, -0.142
- O=C(NCCC1=CCCCC1)C1CCN(S(=O)(=O)c2cccc3cccnc23)CC1 — higher, 0.278
- CCOC(=O)N1CCN(C(=O)c2cccc(OC)c2OC)CC1 — higher, 0.308
- O=C(Oc1cc(=O)oc2ccccc12)c1ccco1 — lower, -1.36
- COc1ccc(-c2cc(C(=O)OCC(=O)Nc3ccc4c(c3)OCO4)c3ccccc3n2)cc1 — higher, 0.618
- Cn1c(=O)n(Cc2ccc(F)cc2)c(=O)c2c1nc1n2CCCN1Cc1ccccc1 — lower, -0.855
- CCC(=O)Nc1ccc2c(c1)nc(CCN1CCN(C)CC1)n2C — higher, 0.884
- CC1=C(OC(=O)C(C)(C)C)C(C)(C)C(c2ccccc2)OC1=O (stereo unspecified) — higher, -0.318
- Cc1nc2ccc3nc(NC(=O)c4ccco4)sc3c2s1 — higher, 0.0103
- FC(F)(F)c1cc(-c2ccco2)nc(NCCc2ccccc2)n1 — higher, -0.141
- NC(=O)NC(=O)Nc1ccccc1Cl — higher, 0.0822
- Nc1c(S(=O)(=O)c2cccs2)c2nc3ccccc3nc2n1CC1CCCO1 (stereo unspecified) — higher, -0.113
- CCCN1C(=O)SC(CC(=O)Nc2ccc(Br)cc2)C1=O (stereo unspecified) — higher, -0.212
- COc1ccc(-c2cn3c(C)c(C(=O)N4CCCc5ccccc54)sc3n2)cc1 — lower, -0.413
- COc1ccc(-n2c(SCC(=O)N3CCCCC3C)nnc2-c2cccnc2)cc1 (stereo unspecified) — higher, 0.892
- c1ccc2cc(OCc3nc4ccccc4[nH]3)ccc2c1 — higher, -0.188
- CCCCN1C(=O)C2C(C(=O)Nc3cccc(OC)c3)C3C=CC2(O3)C1C(=O)NC1CCCCC1C (stereo unspecified) — lower, -0.922
- CCCC(=O)NC(=S)Nc1ccccc1C(F)(F)F — higher, 0.25
- COc1ccc(Cl)cc1NC(=O)C(C)Sc1nncn1C (stereo unspecified) — higher, -0.0847
- Cc1ccccc1NC(=O)CSc1nc(N)c(C#N)c(-c2cccs2)c1C#N — lower, -1.39
- CCOCCCNC(=O)CCC(=O)NNc1nc2ccccc2c2nc(-c3ccccc3)nn12 — higher, 0.25

In the case of `CCSc1ccccc1C(=O)Nc1cccnc1`, the z-score was active: -3.72.
`COCCNCCOc1ccccc1-c1ccccc1` was tested, and the z-score was active: 3.67.
In the case of `Fc1ccc(CNC(=S)Nc2cccc(Cl)c2)cc1`, the z-score was active: 5.18.
With `C/C(=N\NC(=S)NCCc1ccccc1)c1cccs1` the z-score was active: 3.65.
